Assay results from the supplement of paper PMC10338343.
± gives the standard deviation. The list shows a part of the results, in another mix than the full data.

Tested on: MIWI (PIWIL1) piRISC loaded with L1MC piRNA (30 nt)
Test: pre-steady-state target cleavage rate (min^-1); MIWI and MILI are mouse PIWI proteins and EfPiwi is from a freshwater sponge; tags in brackets are library labels; higher = faster piRNA-guided slicing of the target
Conditions: guide: L1MC piRNA 5'p-UAACUAAAUACUAUGCAAGCUGUAGGUCCU
How it was run: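 The pre-steady-state cleavage rate was obtained by Cleave-'n-Seq with a burst-and-steady-state fit. A transcribed, DNA-blocked target RNA library (0.1 nM) was mixed with 1 nM active affinity-purified piRISC carrying one synthetic guide, with or without 500 nM GTSF1 partner protein, in HEPES–potassium acetate buffer at 33 °C for 0–8 or 0–960 min. Uncleaved targets were sequenced and normalised to depth and to weakly complementary targets, with three trials pooled and k3 capped at 0.0001 min^-1.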

[1] = auxiliary factor: 500 nM mouse GTSF1
[2] = auxiliary factor: none (no GTSF1)

Row | Sequence | pre-steady-state target cleavage rate [1] | pre-steady-state target cleavage rate [2]
1 | UCCUGGAUCAGUCUUGCAUAGUAUUUAGUUA | 0.691 ± 0.039 | 0.0276 ± 0.0062
2 | UCCUGGAUGUGCUUGCUUAGUAUUAAGUUA | 0.00968 ± 0.0036 | 0.00433 ± 0.0023
3 | UCCUCGAUCAGCUUGCAUAGUAUUUUCAAA | 0.307 ± 0.038 | 0.00426 ± 0.0022
4 | UCCUGGUAGAGCUUGCUUAGUAUUUAGUUA | 0.858 ± 0.045 | 0.0309 ± 0.0076
5 | UCCACCUACAGCUUGCUUACUAUUUAGUUA | 0.389 ± 0.026 | 0.00971 ± 0.0021
6 | UCGACCUACAGCUUGCAUAGUAUUUAGUUG [g2:g28:cont:t1G] | 0.569 ± 0.04 | 0.0703 ± 0.013
7 | UCCUGGUACAGCUUCGCAUAGUAUUUAGUUA | 0.686 ± 0.046 | 0.00964 ± 0.0031
8 | UCCUGGUACACCUUGCAUUGUAUUUAGUUA | 0.207 ± 0.052 | 0.00808 ± 0.0025
9 | UCCUGGAUGAGCUUGCAUAGUAUUUACAAA | 0.199 ± 0.034 | 0.00422 ± 0.0029
10 | UCCACGUUCAGCUUGCAUAGUAUUUAGUUA | 1.42 ± 0.057 | 0.0658 ± 0.011
11 | UCCAGCUACAGCUUGCAUAGUAUUUAGAAA | 0.381 ± 0.062 | 0.00449 ± 0.0021
12 | UCGACCUUCUGCUUGCAUAGUAUUUAGUUA | 1.45 ± 0.048 | 0.0653 ± 0.011
13 | UCGACGUACAGCUUGCAUACUAUUUAGUUA | 0.309 ± 0.011 | 0.0391 ± 0.0076
14 | UCGUGCUACAGCUUGCAUAGUAUUUAGAAA | 0.318 ± 0.037 | 0.00463 ± 0.0016
15 | UCCUGGAUGUGCUUGCAAAGUAUUUAGAAA | 0.0188 ± 0.0047 | 0.00328 ± 0.003
16 | UGGACCUACAGCUUGCAUAGUAUAUAGAUA | 0.177 ± 0.029 | 0.00672 ± 0.0024
17 | UCCUGGAUGAGCUUGCAUAGUAUUUGGUUA | 0.635 ± 0.046 | 0.0303 ± 0.0095
18 | UCCUGGAACAGCUUGCUUAGUAAUUAGUUA | 0.485 ± 0.041 | 0.0141 ± 0.0051
19 | UCCUCCUACAGCUUGCAUAGUAUAUAGUUA | 0.602 ± 0.035 | 0.0203 ± 0.0041
20 | UCGACCUACAGCUAGCAUAGUAUUAAGUUA | 0.945 ± 0.056 | 0.00724 ± 0.0022

Row | Sequence | pre-steady-state target cleavage rate [1] | pre-steady-state target cleavage rate [2]
21 | UCCUGGAACUGCUUGCAUAGUAUUUACAAA | 0.137 ± 0.022 | 0.00377 ± 0.0034
22 | UCCACCUACAGCUUGCAUUGUAUAUAGUUA | 0.416 ± 0.025 | 0.0125 ± 0.0031
23 | UCGACCUACAGCUUGCUUAGUAUUUAGUUA | 1.66 ± 0.074 | 0.0474 ± 0.01
24 | UCGACCUACAGCUAGCAUAGUAUUUAGAUA | 0.513 ± 0.033 | 0.00963 ± 0.0037
25 | UCCUGGUUCAGCAUGCAUAGUAUUUAGUUA | 0.93 ± 0.036 | 0.0172 ± 0.0043
26 | UCCUGGUACAGCUUGCAUAGUAUUUAUUUA | 0.27 ± 0.056 | 0.0227 ± 0.0054
27 | UCCACCUACUGCUUGCAAAGUAUUUAGUUA | 0.623 ± 0.025 | 0.0305 ± 0.0052
28 | UCCUGGAACAGCUUGCAUAGUAUAUAGUAA | 0.275 ± 0.04 | 0.0122 ± 0.0031
29 | UCCUGGAACAGCUUGCAUAGUUAUUAGUUA | 0.113 ± 0.015 | 0.015 ± 0.0044
30 | UCCACCUACAUGCUUGCAUAGUAUUUAGUUA | 0.347 ± 0.034 | 0.0318 ± 0.0049
31 | AGGACCUACACCUUGCAUAGUAUUUUCAAA | 0.353 ± 0.042 | 0.00849 ± 0.0032
32 | UCCUGGAUCAGCUUGCAUAGUCAUUUAGUUA | 0.0087 ± 0.0047 | 0.00533 ± 0.0025
33 | UCCUGGAUGAGCUUGCAUAGUAAUUACUUA | 0.0406 ± 0.014 | 0.00637 ± 0.0034
34 | UCCUCCUAAGCUUGCAUAGUAUUUAGUUA | 0.693 ± 0.03 | 0.049 ± 0.01
35 | UCCUGGUACAGCUUGCAGAGUAUUUAGUUA | 0.315 ± 0.056 | 0.022 ± 0.006
36 | UCCUGGAUGUGCUUGCAAAGUAUUUAGUAA | 0.0608 ± 0.0086 | 0.0105 ± 0.0037
37 | UCCUCCGUACAGCUUGCAUAGUAUUUAGUUA | 1.02 ± 0.042 | 0.0539 ± 0.0094
38 | AGGACCUACAGGAUGCAUAGUAUUUAGUUA | 1.06 ± 0.092 | 0.023 ± 0.0047
39 | AGGACCUACAGCUUGCAUAGUAUUUACAUA | 0.359 ± 0.056 | 0.0253 ± 0.0072
40 | UCGACCUACAGCUUGCAUGUAUUUAGUUA | 0.479 ± 0.05 | 0.00292 ± 0.0025

Row | Sequence | pre-steady-state target cleavage rate [1] | pre-steady-state target cleavage rate [2]
41 | UCCUCCUACAGCUAGCAUAGUAUUUAGUAA | 0.478 ± 0.039 | 0.00501 ± 0.0017
42 | UCCACCUACAGCUUGCAUAGUAUUUUCAUA | 0.282 ± 0.039 | 0.00281 ± 0.0026
43 | UCCUGGAUCAGCUUGCAAUGUAUUUAGUUA | 0.0725 ± 0.011 | 0.00523 ± 0.0025
44 | UCGACCUACAGCUUGCAUAGUUUUAAGUUA | 0.276 ± 0.022 | 0.0137 ± 0.0034
45 | UCCUGGUACAGUUGCAUAGUAUUUAGUUA | 0.487 ± 0.037 | 0.00874 ± 0.0034
46 | UGGACGAUCAGCUUGCAUAGUAUUUACAAA | 0.351 ± 0.042 | 0.0104 ± 0.003
47 | UCCUCCUACAGCUUGCAAAGUAUUAAGUUA | 0.361 ± 0.028 | 0.00876 ± 0.0021
48 | AGGACCUACAGCCUUGCAUAGUAUUUAGUUA | 1.23 ± 0.069 | 0.0878 ± 0.019
49 | UCCUGCUACAGCUUGCAUAGUUAUUAGUUA | 0.142 ± 0.022 | 0.0149 ± 0.0035
50 | UCGACCUACAGCUUGCAUAGUAUUUAGUAA | 1.15 ± 0.061 | 0.0683 ± 0.014
51 | UCCUGGAUGUCCUUGCAUAGUAUAUAGUUA | 0.0245 ± 0.0072 | 0.00503 ± 0.0025
52 | UCCACCUACAGCUUUCAUAGUAUUUAGUUA | 0.393 ± 0.034 | 0.0122 ± 0.0019
53 | UCGACCUACAGCAUGCAUAGAAUUUAGUUA | 0.34 ± 0.047 | 0.00735 ± 0.0016
54 | UCCUGCUACAGCUUGCAUAGUUUUUUGUUA | 0.344 ± 0.038 | 0.0176 ± 0.0041
55 | UCCUGGAAGAGCUUGGAUAGUAUUUAGUUA | 0.672 ± 0.053 | 0.0302 ± 0.0065
56 | UCCUGGAACAGCUUGGCAUAGUAUUUAGUUA | 0.998 ± 0.22 | 0.0177 ± 0.0048
57 | UCCUGGUACAGGUUGCAAAGUAUUUAGUUA | 0.71 ± 0.038 | 0.018 ± 0.0044
58 | UCCACCUACAGCUUGCUUAGUAUUUUGUUA | 0.641 ± 0.042 | 0.0136 ± 0.0027
59 | UCCUGGUACAGCUAGCAUAGUAUUUUGUUA | 0.32 ± 0.048 | 0.0119 ± 0.0031
60 | AGGACCAACAGCUUGCAUAGUAUUAAGUUA | 0.756 ± 0.082 | 0.0463 ± 0.0088
